The other results are listed elsewhere or left out.
B1: PhoQ; a variant is named by its letters at X, in order, P23837 (parent)
chain: MKKLLRLFFPLSLRVRFLLATAAVVLVLSLAYGMVALIGYSVSFDKTTFRLLRGESNLFYTLAKWENNKLHVELPENIDKQSPTMTLIYDENGQLLWAQRDVPWLMKMIQPDWLKSNGFHEIEADVNDTSLLLSGDHSIQQQLQEVREDDDDAEMTHSVAVNVYPATSRMPKLTIVVVDTIPVELKSSYMVWSWFIYVLSANLLLVIPLLWVAAWWSLRPIEALAKEVRELEEHNRELLNPATTRELTSLVRNLNRLLKSERERYDKYRTTLTDLTHSLKTPLXXLQXXLRSLRSEKMSVSDAEPVMLEQISRISQQIGYYLHRASMRGGTLLSRELHPVAPLLDNLTSALNKVYQRKGVNISLDISPEISFVGEQNDFVEVMGNVLDNACKYCLEFVEISARQTDEHLYIVVEDDGPGIPLSKREVIFDRGQRVDTLRPGQGVGLAVAREITEQYEGKIVAGESMLGGARMEVIFGRQHSAPKDE

Variants of: B1
Test: enrichment ratio after two sorts for PhoP signalling (ratio (wild type AVST 3.29)); higher = more functional
Details: with PhoP (E. coli)

Variant	enrichment ratio
IQTN	≤ 0.25
YMCY	≤ 0.25
MTYV	6.07
TLPE	≤ 0.25
RCDV	≤ 0.25
WSMH	≤ 0.25
YEEV	≤ 0.25
ANDY	≤ 0.25
KCAA	≤ 0.25
MLCM	6.08
NSWT	≤ 0.25
SRLQ	0.442
HISI	≤ 0.25
KCNE	≤ 0.25
FIHI	≤ 0.25
HSWM	≤ 0.25
HVMH	≤ 0.25
TINH	34.4
MKFS	≤ 0.25
RNSH	≤ 0.25
LMRM	≤ 0.25

Variant	enrichment ratio
VHNI	≤ 0.25
DWTP	≤ 0.25
EVKY	≤ 0.25
MFGR	≤ 0.25
QAGT	2.53
KDYG	≤ 0.25
GWDR	≤ 0.25
GETC	3.51
TAQF	14
MSNA	≤ 0.25
YTAS	≤ 0.25
RINP	≤ 0.25
MCRW	≤ 0.25
EEEV	≤ 0.25
DYMP	≤ 0.25
SKSS	2.49
KHML	≤ 0.25
GTQL	≤ 0.25
LDFP	≤ 0.25
RTSA	≤ 0.25
HTST	≤ 0.25

Variant	enrichment ratio
PSMS	≤ 0.25
HCPC	≤ 0.25
LFWS	≤ 0.25
PFSP	≤ 0.25
VRLM	≤ 0.25
YCQV	≤ 0.25
GCGI	≤ 0.25
FNAK	≤ 0.25
VYYG	≤ 0.25
PRCG	≤ 0.25
LKGV	≤ 0.25
HHGL	1.38
KYYI	≤ 0.25
IPNE	≤ 0.25
FQLH	4.07
PFRY	≤ 0.25
WFLR	≤ 0.25
SCTA	12.7
DWHY	≤ 0.25
SSRH	≤ 0.25
HNDF	≤ 0.25

Variant	enrichment ratio
KMLV	≤ 0.25
YSIK	≤ 0.25
NKYL	≤ 0.25
EPPD	≤ 0.25
ENNQ	≤ 0.25
VFHR	≤ 0.25
FIMC	≤ 0.25
MPKP	≤ 0.25
DARC	≤ 0.25
TIPH	≤ 0.25
RNHV	≤ 0.25
QVFN	≤ 0.25
TTLK	5.12
TRRW	≤ 0.25
WRHP	≤ 0.25
ANYE	≤ 0.25
YKHN	≤ 0.25
SPPS	≤ 0.25
GICW	3.95
TRWQ	≤ 0.25
VHQR	≤ 0.25

— a collection of fitness landscapes (doi:10.1126/science.1257360)
